Experimental data published in PubChem BioAssay AID588591 (National Center for Advancing Translational Sciences (NCATS), 2011).
About 4,700 (1.2%) of roughly 390,000 compounds were called active. Inconclusive results, whose numbers are uncertain, are shown with a selection of clear calls. Calls come from the whole dose curve; as a rule, active = well fitted inhibition curve with a large enough effect; inconclusive = small, poorly fitted or top-dose-only effect, or another doubt; inactive = no such curve, though single readings can be large or run the other way. A potency beside an inconclusive call is a rough fit, not a confirmed value.

Target: DNA polymerase eta (Homo sapiens) (UniProt Q9Y253)
UniProt Q9Y253, sequence (Q9Y253 whole entry, looked up): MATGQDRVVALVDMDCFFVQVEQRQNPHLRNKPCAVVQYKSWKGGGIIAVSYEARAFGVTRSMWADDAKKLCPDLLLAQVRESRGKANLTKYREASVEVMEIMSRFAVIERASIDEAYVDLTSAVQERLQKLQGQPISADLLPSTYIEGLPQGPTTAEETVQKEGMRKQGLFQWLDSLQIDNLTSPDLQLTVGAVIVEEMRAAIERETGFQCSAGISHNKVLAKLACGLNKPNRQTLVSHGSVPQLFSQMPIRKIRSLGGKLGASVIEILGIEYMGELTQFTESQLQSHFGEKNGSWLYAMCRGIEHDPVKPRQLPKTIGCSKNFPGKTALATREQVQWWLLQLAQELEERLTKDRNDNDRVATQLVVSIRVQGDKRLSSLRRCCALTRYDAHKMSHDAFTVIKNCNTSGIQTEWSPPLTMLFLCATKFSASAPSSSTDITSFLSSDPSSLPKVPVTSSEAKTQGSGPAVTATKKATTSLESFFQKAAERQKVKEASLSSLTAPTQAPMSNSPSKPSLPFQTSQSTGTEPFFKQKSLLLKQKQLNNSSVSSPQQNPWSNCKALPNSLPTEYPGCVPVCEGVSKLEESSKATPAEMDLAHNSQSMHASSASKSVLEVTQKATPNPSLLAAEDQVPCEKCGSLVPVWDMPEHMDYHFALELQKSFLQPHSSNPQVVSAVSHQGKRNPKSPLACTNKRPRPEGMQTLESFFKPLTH
Experiment: qHTS for Inhibitors of Polymerase Eta
Conditions: recombinant Pol eta, fluorescent DNA replication assay; series mostly up to 114 µM; activity change, negative = inhibition: at the top concentration
Method in brief: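 Pol eta at 10 nM preincubated with compounds 15 min at room temperature; reaction started with fluorescent substrate (50 nM final) and read kinetically at 0 and 10 min.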
% is set by controls: 0 for no effect and ±100 for the full control effect; potency is the fitted concentration of half-maximal effect; tags give direction and shape of the fitted curve.

| Structure (SMILES) | activity change, negative = inhibition | Potency |
| --- | --- | --- |
| CCCCS(=O)(=O)/C=C\C1C2C=CC(C2)C1S(=O)(=O)CCCC (stereo not drawn) | inactive: -5.89% |  |
| CCN(CC(=O)Nc1ccc2c(c1)OCCO2)C(=O)CC(NC(C)=O)c1ccccc1 (stereo not drawn) | inactive: -1.18% |  |
| O=C(CNC(=O)COc1ccccc1)NCc1cccnc1 | inactive: -7.83% |  |
| CC(=O)/C=C/n1c(=S)oc2ccccc21 |  | inconclusive: 79.4 µM [inhibitor, partial curve] |
| CCOc1ccc(/C=C/C(=O)N(CC)CC(=O)Nc2ccc3c(c2)OCCO3)cc1OCC | inactive: -25.4% |  |
| CCOC(=O)c1c(-c2ccc(OC)cc2)oc2ccc(O)cc12 |  | inconclusive: 3.16 µM [inhibitor, full curve, poor fit] |
| CCc1nnc(NC(=O)C(=O)c2cc(C)n(-c3ccccc3)c2C)s1 |  | active: 50.1 µM |
| CC1C(=O)N(Cc2cn(Cc3ccco3)nn2)CCS(=O)(=O)N1Cc1ccc(-c2ccncc2)cc1 (stereo not drawn) |  | active: 50.1 µM |
| O=C(CNC(=O)c1cccs1)NCCc1ccco1 |  | inconclusive: 25.1 µM [inhibitor, partial curve, poor fit] |
| c1ccc(C2C/C(=N\N3CCOCC3)c3ccccc3O2)cc1 (stereo not drawn) |  | inconclusive: 39.8 µM [inhibitor, partial curve, poor fit] |
| Cc1nc(S/C(=C\c2ccc(OCc3ccccc3Cl)cc2)C(=O)O)n[nH]1 |  | active: 31.6 µM |
| CCC1Sc2ccc(S(=O)(=O)CCC(=O)Nc3c(Cl)cc(OC)cc3OC)cc2NC1=O (stereo not drawn) |  | inconclusive: 11.2 µM [inhibitor, full curve, poor fit] |
| CCCOC(=O)c1ccc(Oc2cn[nH]c2-c2ccc(OCC)cc2O)cc1 |  | inconclusive: 50.1 µM [inhibitor, partial curve, poor fit] |
| CCc1ccc(-n2c(=O)c3c4c(sc3n(CC(=O)c3ccc(Cl)cc3)c2=O)CCC4)cc1 | inactive: 2.45% |  |
| COc1ccc(NC(=O)CCS(=O)(=O)c2ccc(OC)cc2)cc1 | inactive: -12.6% |  |
| O=C(O)C1Cc2ccccc2CN1C(=O)COc1ccc(Br)cc1 (stereo not drawn) |  | active: 10 µM |
| O=C(O)C(C(=O)/C=C/c1ccco1)=C1SCCS1 |  | active: 8.91 µM |
| c1ccc(CN(Cc2ccco2)C(c2ccncc2)c2nnnn2C2CCCC2)cc1 (stereo not drawn) |  | active: 44.7 µM |
| CC1=NN(C(N)=S)C(=O)C1N=Nc1ccc(S(N)(=O)=O)cc1 (stereo not drawn) |  | inconclusive: 31.6 µM [inhibitor, single point] |
| Cc1ccc(NC(=O)C2CCN(c3cc(C)nc4c(-c5ccc(Cl)cc5)c(C)nn34)CC2)c(C)c1 | inactive: -11.4% |  |
| O=C(CSc1ccccc1)Nc1ccc(-c2nc3ccccc3[nH]2)cc1 |  | inconclusive: 22.4 µM [inhibitor, partial curve, poor fit] |
| Cc1c(NC(=O)c2ccco2)cccc1-c1nc2cccnc2s1 |  | active: 44.7 µM |
| CCCC(=O)Nc1ccc2c(c1)nc(CCN1CCC(C)CC1)n2C | inactive: -5.47% |  |

| Structure (SMILES) | activity change, negative = inhibition | Potency |
| --- | --- | --- |
| COc1ccc(NC(=O)C2=C(C)Nc3ncnn3C2c2ccccc2C(F)(F)F)c(OC)c1 (stereo not drawn) |  | inconclusive: 50.1 µM [inhibitor, partial curve, poor fit] |
| O=C(c1cnn2c(C(F)(F)F)cc(-c3ccc(F)cc3)nc12)N1CCc2ccccc2C1 |  | inconclusive: 50.1 µM [inhibitor, partial curve, poor fit] |
| Cc1cccc(N2CCN(C(=O)CCS(=O)(=O)c3ccc(Br)cc3)CC2C)c1 (stereo not drawn) |  | inconclusive: 50.1 µM [inhibitor, partial curve, poor fit] |
| O=C(O)c1cn(C2CC2)c2cc(N3CCN(S(=O)(=O)c4ccc5c(c4)OCCO5)CC3)c(F)cc2c1=O |  | active: 79.4 µM |
| Cc1ccc(NC(=O)CSc2nc(-c3ccco3)nc3cc(=O)[nH]n23)cc1C |  | inconclusive: 100 µM [inhibitor, single point] |
| O=C(COc1ccccc1)NCC(=O)Nc1ccc(S(=O)(=O)NCc2ccco2)cc1 |  | inconclusive: 22.4 µM [inhibitor, partial curve, poor fit] |
| Cc1ccc2c(c1)-c1c(cnn1CC(=O)NC(C)CCc1ccco1)CO2 (stereo not drawn) |  | inconclusive: 20 µM [inhibitor, partial curve, poor fit] |
| Cn1nc(C(F)(F)F)c(-c2ccc(Br)cc2)c1NC(=O)Nc1ccc(F)cc1F |  | inconclusive: 89.1 µM [inhibitor, partial curve, poor fit] |
| O=C(NCc1ccc2c(c1)OCO2)C1CCCN(S(=O)(=O)c2cccc3nonc23)C1 (stereo not drawn) |  | inconclusive: 31.6 µM [inhibitor, partial curve, poor fit] |
| COc1cc(/C=C2\C(=N)N3N=C(S(C)(=O)=O)SC3=NC2=O)cc(OC)c1OCCOc1ccccc1C |  | active: 25.1 µM |
| CCOc1ccc2[nH]c(=O)c(=O)[nH]c2c1 |  | inconclusive: 7.94 µM [inhibitor, partial curve] |
| C/C(=N\NC(=S)Nc1c(C)cccc1C)c1cc2ccccc2o1 | inactive: -6.24% |  |
| CC(Cc1ccccc1)=NNc1ccc([N+](=O)[O-])cc1[N+](=O)[O-] | inactive: -7.61% |  |
| COc1ccc2nc(NC(=O)c3cccc(-c4cc5ccccc5oc4=O)c3)sc2c1 |  | inconclusive: 8.91 µM [inhibitor, partial curve] |
| O=C1C=CC(O)C2(CO)OC12 (stereo not drawn) |  | inconclusive: 44.7 µM [inhibitor, partial curve, poor fit] |
| Cc1noc(C)c1COc1ccc(C(=O)OCC(=O)N2c3ccccc3NC(=O)C2(C)C)cc1 |  | active: 7.08 µM |
| O=C(O)CCc1ccc(-c2ccccc2)n1NC(=O)c1ccco1 |  | inconclusive: 28.2 µM [inhibitor, partial curve, poor fit] |
| CCc1ccc(C(=O)Cn2ncc(Cl)c(Cl)c2=O)cc1 |  | inconclusive: 14.1 µM [inhibitor, full curve, poor fit] |
| O=C(O)CSc1cc(NS(=O)(=O)c2ccc(Br)cc2)c2ccccc2c1O |  | active: 35.5 µM |
| O=C(O)c1ccsc1Cc1cccs1 | inactive: -3.5% |  |
| CC(OC(=O)c1ccc([N+](=O)[O-])s1)C(=O)Nc1ncc(Cl)cc1Cl (stereo not drawn) |  | inconclusive: 15.8 µM [inhibitor, partial curve, poor fit] |
| O=C(NCc1ccccn1)Nc1cc(Cl)ccc1Cl | inactive: -16.9% |  |
| CCCCC(=O)Nc1ccc(C(=O)Nc2ccc(S(=O)(=O)Nc3nccc(C)n3)cc2)cc1 |  | inconclusive: 31.6 µM [inhibitor, single point] |

| Structure (SMILES) | activity change, negative = inhibition | Potency |
| --- | --- | --- |
| CC(=O)O[C@H]1[C@@H](O)[C@H](O)[C@H](Oc2c(O)c(C)c3c4c2[C@@H](C)CC[C@@H]4[C@@H](C)C[C@H]3C=C(C)C)O[C@H]1C | inactive: -21.2% |  |
| O=C(C(=O)c1ccc(O)c(O)c1)c1ccc(O)c(O)c1 |  | inconclusive: 35.5 µM [inhibitor, partial curve, poor fit] |
| CCc1cccc2c(C(=O)COC(=O)c3nn(C)c(=O)c4ccccc34)c[nH]c12 |  | inconclusive: 89.1 µM [inhibitor, partial curve, poor fit] |
| Cc1ccc(CNC(=O)CCc2nnc3ccc(N4CCC5(CC4)OCCO5)nn23)cc1 | inactive: -13.2% |  |
| O=C(Cc1ccc([N+](=O)[O-])cc1)N1N=C(C2CC2)CC1(O)C(F)(F)F (stereo not drawn) |  | inconclusive: 89.1 µM [inhibitor, partial curve, poor fit] |
| COc1ccc(CNC(=O)c2ccc3c(c2)nc2n3CCOC2)c(OC)c1 | inactive: -11.4% |  |
| COc1ccc(NC2=Nc3ccccc3N3C2=Nc2c(c(C)nn2-c2ccc(C)cc2)C3c2cccnc2)cc1 (stereo not drawn) |  | inconclusive: 17.8 µM [inhibitor, partial curve, poor fit] |
| c1cc(-c2sc(-c3ccncc3)c(-c3ccncc3)c2-c2ccncc2)ccn1 |  | inconclusive: 20 µM [inhibitor, partial curve, poor fit] |
| COc1ccc2nc3cccc(OC)c3nc2c1 |  | inconclusive: 35.5 µM [inhibitor, partial curve, poor fit] |
| O=C(CSc1nc2ncccc2[nH]1)Nc1ccc2c(c1)OCCO2 |  | inconclusive: 25.1 µM [inhibitor, partial curve, poor fit] |
| Cc1cc(C(=O)COC(=O)c2ccc(F)cc2)c(C)n1C | inactive: -10.8% |  |
| CC1C(=O)N(Cc2cn(CCC3OCCO3)nn2)CCS(=O)(=O)N1Cc1ccc(-c2ccccc2)cc1 (stereo not drawn) |  | inconclusive: 28.2 µM [inhibitor, partial curve, poor fit] |
| Cc1ccc(NC(=O)N2CCC(C(N)=O)CC2)cc1 | inactive: -5.13% |  |
| Cc1cc(C)c2nc(N(Cc3cccnc3)C(=O)c3cccs3)sc2c1 |  | inconclusive: 79.4 µM [inhibitor, partial curve, poor fit] |
| Cc1cc([N+](=O)[O-])nn1CC(=O)Nc1cccc2nonc12 |  | inconclusive: 89.1 µM [inhibitor, single point] |
| CC(C)Cc1cc(C(=O)NCc2ccco2)no1 |  | inconclusive: 56.2 µM [inhibitor, partial curve, poor fit] |
| CC(C)Sc1ncc(Cl)c(C(=O)N(Cc2ccc(N(C)C)cc2)C2CCS(=O)(=O)C2)n1 (stereo not drawn) |  | active: 79.4 µM |
| COc1ccccc1N1CCN(c2ncnc3c2cnn3-c2cccc(Cl)c2)CC1 | inactive: -12.1% |  |
| CN1CCc2nc3sc(C(=O)C45CC6CC(CC(C6)C4)C5)c(N)c3cc2C1 |  | inconclusive: 56.2 µM [inhibitor, partial curve, poor fit] |
| O=C(O)C1Nc2ccc(Br)cc2C2C=CCC12 (stereo not drawn) |  | active: 3.16 µM |
| O=C(c1cc(-c2cccs2)on1)N1CCCc2ccccc21 |  | inconclusive: 100 µM [inhibitor, partial curve, poor fit] |
| CC(=O)c1sc2nc(CSc3nnnn3-c3ccccc3)[nH]c(=O)c2c1C |  | active: 10 µM |
